This is an account of results in paper PMC4336329 (PLoS ONE, 2015).

Among all 310,000 compounds or so, about 14,000 (4.5%) showed an effect of 50% or more. Effects have a minus sign here. The list shows a part of the results.
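Note: peak tail current of the secondary pulse compared with the same well before compound.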

The target in this experiment is human ether-à-go-go-related gene (hERG) potassium channel (human, UniProt Q12809). Briefly: primary screen, population patch clamp on CHO cells stably expressing hERG.
Sequence of human ether-à-go-go-related gene (hERG) potassium channel (Q12809 whole entry, looked up): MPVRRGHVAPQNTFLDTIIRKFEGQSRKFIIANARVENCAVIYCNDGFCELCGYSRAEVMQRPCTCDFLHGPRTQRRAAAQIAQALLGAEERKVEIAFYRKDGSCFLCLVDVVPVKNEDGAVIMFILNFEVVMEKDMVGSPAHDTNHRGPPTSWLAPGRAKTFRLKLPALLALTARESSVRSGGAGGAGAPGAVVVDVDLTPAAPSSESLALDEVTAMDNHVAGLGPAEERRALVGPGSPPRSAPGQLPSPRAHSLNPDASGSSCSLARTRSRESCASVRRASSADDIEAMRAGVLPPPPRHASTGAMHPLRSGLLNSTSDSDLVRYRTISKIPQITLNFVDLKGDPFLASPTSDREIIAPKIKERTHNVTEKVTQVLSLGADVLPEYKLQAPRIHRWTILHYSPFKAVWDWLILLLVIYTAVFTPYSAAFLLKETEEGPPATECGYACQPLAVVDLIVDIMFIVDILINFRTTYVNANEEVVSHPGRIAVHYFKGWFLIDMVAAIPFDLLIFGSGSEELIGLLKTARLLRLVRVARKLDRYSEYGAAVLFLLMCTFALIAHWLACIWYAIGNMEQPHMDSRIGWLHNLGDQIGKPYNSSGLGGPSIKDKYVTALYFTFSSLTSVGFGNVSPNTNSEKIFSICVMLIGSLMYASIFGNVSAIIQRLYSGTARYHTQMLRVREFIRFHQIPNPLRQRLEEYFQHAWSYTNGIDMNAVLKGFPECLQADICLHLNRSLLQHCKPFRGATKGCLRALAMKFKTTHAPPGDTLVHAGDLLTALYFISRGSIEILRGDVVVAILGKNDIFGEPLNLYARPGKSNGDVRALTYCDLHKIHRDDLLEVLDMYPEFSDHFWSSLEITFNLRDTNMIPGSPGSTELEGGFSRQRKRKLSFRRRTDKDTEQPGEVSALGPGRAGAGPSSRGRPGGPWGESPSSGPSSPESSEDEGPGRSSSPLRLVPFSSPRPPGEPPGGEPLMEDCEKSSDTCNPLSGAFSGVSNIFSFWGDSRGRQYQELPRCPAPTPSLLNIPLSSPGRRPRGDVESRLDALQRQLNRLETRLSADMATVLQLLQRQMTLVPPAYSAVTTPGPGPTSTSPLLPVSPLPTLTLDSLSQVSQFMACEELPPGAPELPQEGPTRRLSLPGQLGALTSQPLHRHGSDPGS
With `CC(=O)NCC(=O)N1CCCC(C(=O)c2ccc3c4c(cccc24)CC3)C1` (stereo not shown), the “hERG current change (%, negative = inhibition) at 10uM” value amounted to 8.94%. `CCOC(=O)C1CCN(S(=O)(=O)c2cn(C)c(=O)n(C)c2=O)CC1`: the “hERG current change (%, negative = inhibition) at 10uM” value was determined as 17.3%.

On to `O=C1OCC=C1NNC(=O)c1cccnc1`, for which the “hERG current change (%, negative = inhibition) at 10uM” value was determined as 25.1%. Regarding `Cn1c(Cc2ccc3c(c2)OCO3)nnc1SCC(=O)N1CCc2ccccc2C1`, the “hERG current change (%, negative = inhibition) at 10uM” value is -18.1%. Take `O=C(COC(=O)c1cc[n+]([O-])cc1)Nc1cccc(Cl)c1Cl`: the “hERG current change (%, negative = inhibition) at 10uM” value was 18.9%. Regarding `CN(Cc1ccccc1)C(=O)[C@@H]1CCCN1S(=O)(=O)c1ccc(Cl)cc1`, the “hERG current change (%, negative = inhibition) at 10uM” value is -5.14%. Take `Fc1ccc(-n2c(Cc3cccs3)n[nH]c2=S)cc1Cl`: the “hERG current change (%, negative = inhibition) at 10uM” value came out at 12.6%.

Take `O=C(CN1CCCN(S(=O)(=O)c2ccc(Br)s2)CC1)Nc1ccc(Cl)cc1`: the “hERG current change (%, negative = inhibition) at 10uM” value is reported as -28.7%. With `CCOc1ccc(NC(=O)CN(C)S(=O)(=O)c2ccc3c(c2)CCC(=O)N3)cc1` the figure was -41.3%; with `CC(C)(C)OC(=O)NC1CONC1=O` (stereo not shown), 12.1%. Take `Cn1cc(SCC(=O)NCc2ccc(F)cc2)c2ccccc21`: the “hERG current change (%, negative = inhibition) at 10uM” value is given as -6.61%.

Consider `Cc1occc1-c1nnc(SCC(=O)N2CCCC(C)C2)o1` (stereo not shown), for which the “hERG current change (%, negative = inhibition) at 10uM” value is reported as -8.13%. Regarding `Cn1c(=O)c2c(O)c([N+](=O)[O-])c(=O)n(C)c2n(C)c1=O`, the “hERG current change (%, negative = inhibition) at 10uM” value amounted to 18.1%. Regarding `O=C(COc1nncc2ccccc12)Nc1c(F)c(F)c(F)c(F)c1F`, the “hERG current change (%, negative = inhibition) at 10uM” value is recorded as 6.16%. In the case of `COc1ccc(-c2nc(-c3ccccc3)ncc2S(C)(=O)=O)cc1`, the “hERG current change (%, negative = inhibition) at 10uM” value worked out at 13%. As for `C[C@@H]1CN(Cc2nc(-c3cnccn3)no2)C[C@H](C)O1`, the “hERG current change (%, negative = inhibition) at 10uM” value was found to be 25.4%. Take `CCOc1ccc(OCC)c(NC(=O)c2nnn(CC(=O)Nc3cc(C)cc(C)c3)c2N)c1`: the “hERG current change (%, negative = inhibition) at 10uM” value came out at 17.4%. In the case of `COc1ccc(C2CC(c3ccc(OC)cc3OC(C)=O)=NN2C(=O)c2ccccc2)cc1` (stereo not shown), the “hERG current change (%, negative = inhibition) at 10uM” value is reported as -20.6%.

For the molecule `CC(O)CC(=O)O` (stereo not shown), the “hERG current change (%, negative = inhibition) at 10uM” value turned out to be 2.13%. As for `O=C(NCCNC(=O)c1cc(OCC(F)(F)F)ccc1OCC(F)(F)F)Nc1ccc(Cl)cc1`, the “hERG current change (%, negative = inhibition) at 10uM” value was -10.1%.

Regarding `CC(=O)c1cnc(Nc2nc(C)c3cc(C)c(C)cc3n2)nc1C`, the “hERG current change (%, negative = inhibition) at 10uM” value is on record as -0.101%. Regarding `CC(=O)N(C(C)=O)c1c(N2CCOCC2)c2ccccc2oc1=O`, the “hERG current change (%, negative = inhibition) at 10uM” value was 0.993%. Turning to `CC1CCN(S(=O)(=O)c2cccc(-c3nnc(-c4cccnc4)o3)c2)CC1`, the “hERG current change (%, negative = inhibition) at 10uM” value is recorded as -14.7%. Consider `CCOc1cc(/C=C2\C(=O)N(c3nc(-c4ccc(Br)cc4)cs3)N=C2c2ccccc2)ccc1O`, for which the “hERG current change (%, negative = inhibition) at 10uM” value was determined as 4.44%. With `O=C(N/N=C/c1ccc2c(c1)OCO2)c1ccc(Cn2cc([N+](=O)[O-])cn2)o1`, the “hERG current change (%, negative = inhibition) at 10uM” value is recorded as -16.7%.

For `O=[N+]([O-])c1cc(C(F)(F)F)ccc1Cl`, the “hERG current change (%, negative = inhibition) at 10uM” value stood at 22.6%. `O=C(NCC1CCCN1S(=O)(=O)c1cccs1)c1ccccc1F` (stereo not shown): the “hERG current change (%, negative = inhibition) at 10uM” value is recorded as -2.03%. Regarding `NC(=O)c1nn(-c2ccc(Oc3ccccc3)cc2)c(=O)cc1O`, the “hERG current change (%, negative = inhibition) at 10uM” value turned out to be 12.8%. As for `Cc1ccc2c(c1)nnn2C1CCN(C(=O)C23CC4CC(CC(C4)C2)C3)CC1`, the “hERG current change (%, negative = inhibition) at 10uM” value stood at 1.11%.

`O=C(O)CC12CC3CC(C1)CC(n1ncc(NCc4ccccc4Cl)c(Cl)c1=O)(C3)C2`: the “hERG current change (%, negative = inhibition) at 10uM” value is on record as -0.897%. Take `CCOC(=O)/C(=N/Nc1ccc(Cl)cc1)S(=O)(=O)c1ccc(Cl)cc1`: the “hERG current change (%, negative = inhibition) at 10uM” value is 11.4%. Regarding `COc1ccccc1NC(=O)CSc1nnc(CNC(=O)c2cccs2)o1`, the “hERG current change (%, negative = inhibition) at 10uM” value worked out at 5.28%.

For `Cc1cccc(NC(=O)CSCC(=O)NCc2cccc(C(F)(F)F)c2)c1`, the “hERG current change (%, negative = inhibition) at 10uM” value worked out at 9.77%. For `COc1ccc(S(=O)(=O)O/N=C2\CCSc3ccc(C)cc32)cc1`, the “hERG current change (%, negative = inhibition) at 10uM” value is listed as 3.61%.

For `CSc1ccc(S(=O)(=O)N2CCC(C(=O)NCCN3CCOCC3)CC2)cc1`, the “hERG current change (%, negative = inhibition) at 10uM” value stood at 9.53%. Regarding `CN(C)CCN(Cc1ccc(Cl)cc1)c1ccccn1.Cl`, the “hERG current change (%, negative = inhibition) at 10uM” value is reported as -74.4%. Regarding `Cc1ccc(S(=O)(=O)NC(=O)c2ccc(F)cc2)c(C)c1`, the “hERG current change (%, negative = inhibition) at 10uM” value is 10.5%. Regarding `Cc1ccc2nsnc2c1S(=O)(=O)N(Cc1ccco1)Cc1cc2cccc(C)c2[nH]c1=O`, the “hERG current change (%, negative = inhibition) at 10uM” value was 4.38%. In the case of `COc1ccc(-c2c(C#N)c(SCC(=O)c3cc4ccccc4oc3=O)nc(C)c2C(=O)Nc2ccccc2)cc1` it was -4.97%; in that of `CC(C)(C)/C(O)=C(/C#N)c1nc2ccccc2[nH]1`, -10.9%. With `COc1ccc(N2CCN(CCNC(=O)Nc3cc(Cl)ccc3Cl)CC2)cc1` the figure was 15.6%; with `CCOc1ncccc1C(=O)OCC(=O)c1cccc(Br)c1`, -18.2%; with `Cn1c(=O)c2c(nc(CN3CCN(CCO)CC3)n2Cc2ccccc2Cl)n(C)c1=O`, 2.31%.
